Assay [1] deals with T1, endoglin G52V, EYFP-tagged (with an ECFP-tagged copy for the homodimer) (human) (UniProt P17813).
T1 sequence: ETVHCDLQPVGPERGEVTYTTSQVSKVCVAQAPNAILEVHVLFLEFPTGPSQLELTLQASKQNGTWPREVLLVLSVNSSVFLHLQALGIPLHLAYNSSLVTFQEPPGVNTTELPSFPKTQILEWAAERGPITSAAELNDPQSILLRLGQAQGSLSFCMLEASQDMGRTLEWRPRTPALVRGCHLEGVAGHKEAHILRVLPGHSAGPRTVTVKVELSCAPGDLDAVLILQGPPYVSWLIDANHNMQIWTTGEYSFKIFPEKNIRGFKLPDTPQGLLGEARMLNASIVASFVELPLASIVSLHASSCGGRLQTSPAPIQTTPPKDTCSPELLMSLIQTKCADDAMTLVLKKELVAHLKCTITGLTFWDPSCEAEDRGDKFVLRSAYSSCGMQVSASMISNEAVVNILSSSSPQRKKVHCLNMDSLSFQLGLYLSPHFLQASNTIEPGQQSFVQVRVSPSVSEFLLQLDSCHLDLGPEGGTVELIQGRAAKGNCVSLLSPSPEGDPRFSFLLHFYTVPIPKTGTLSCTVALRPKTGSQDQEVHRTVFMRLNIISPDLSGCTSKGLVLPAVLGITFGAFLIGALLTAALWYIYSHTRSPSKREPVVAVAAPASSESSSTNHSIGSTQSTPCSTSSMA
In words: FRET or BRET; microscopic FRET in living CHO cells, ECFP donor and EYFP acceptor, 50 ng of each construct per 100 000 cells, 24 h after transfection, HEPES buffered ringer solution; FRET index (FI) = FRET efficiency x area with FRET; FI<51 no interaction, 51-99 weak or false positive, >=100 interaction; at least 30 cells per sample. For orientation: BRET reads energy transfer from a luciferase to a nearby fluorophore.

Amino acid sequences for entries named in this document (tags omitted).
UniProt P21728: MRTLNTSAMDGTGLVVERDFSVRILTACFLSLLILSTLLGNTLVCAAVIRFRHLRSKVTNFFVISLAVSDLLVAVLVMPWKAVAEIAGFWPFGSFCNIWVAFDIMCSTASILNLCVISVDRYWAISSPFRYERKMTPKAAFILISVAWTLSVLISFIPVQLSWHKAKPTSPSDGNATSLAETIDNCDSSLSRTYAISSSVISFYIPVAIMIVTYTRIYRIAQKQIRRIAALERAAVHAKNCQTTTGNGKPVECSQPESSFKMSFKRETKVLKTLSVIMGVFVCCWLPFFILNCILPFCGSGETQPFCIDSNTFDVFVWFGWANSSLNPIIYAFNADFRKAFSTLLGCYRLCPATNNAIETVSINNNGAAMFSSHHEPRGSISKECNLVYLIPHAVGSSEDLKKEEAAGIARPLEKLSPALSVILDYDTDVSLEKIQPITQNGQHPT

For assay [2], the target named is T2, endoglin wild-type, split-EYFP (BiFC) fusion (human) (UniProt P17813).
T2 sequence: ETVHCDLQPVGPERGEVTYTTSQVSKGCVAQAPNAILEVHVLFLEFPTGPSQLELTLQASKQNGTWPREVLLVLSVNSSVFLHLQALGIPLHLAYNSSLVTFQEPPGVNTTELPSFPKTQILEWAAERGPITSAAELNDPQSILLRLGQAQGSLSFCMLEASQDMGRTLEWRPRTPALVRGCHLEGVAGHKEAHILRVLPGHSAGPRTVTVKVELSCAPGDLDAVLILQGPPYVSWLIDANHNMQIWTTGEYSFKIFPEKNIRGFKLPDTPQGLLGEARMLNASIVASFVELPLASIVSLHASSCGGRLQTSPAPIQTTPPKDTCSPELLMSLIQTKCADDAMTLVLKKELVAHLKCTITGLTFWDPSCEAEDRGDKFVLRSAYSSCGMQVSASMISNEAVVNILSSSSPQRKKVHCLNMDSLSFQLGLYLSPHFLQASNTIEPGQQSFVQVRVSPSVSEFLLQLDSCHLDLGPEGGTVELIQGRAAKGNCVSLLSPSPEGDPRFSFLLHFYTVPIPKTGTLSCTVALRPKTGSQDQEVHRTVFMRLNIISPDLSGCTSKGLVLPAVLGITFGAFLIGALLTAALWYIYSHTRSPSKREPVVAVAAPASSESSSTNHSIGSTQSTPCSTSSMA
In words: split reporter; BiFC with split EYFP (N172, aa 1-172; 173C, aa 173-238) fused to the C-terminus of the endoglin variants; CHO cells co-transfected; fluorescence microscopy; fragments interchanged between the partners.

Assay [3] addresses endoglin S480C, split-EYFP (BiFC) fusion (human) (UniProt P17813). The assay is described as above.
The target of assay [4] is T1, endoglin G52V, EYFP-tagged (with an ECFP-tagged copy for the homodimer) (human). In words: FRET or BRET; microscopic FRET in living CHO cells, ECFP donor and EYFP acceptor, 50 ng of each construct per 100 000 cells, 24 h after transfection, HEPES buffered ringer solution; FRET index (FI) = FRET efficiency x area with FRET; FI<51 no interaction, 51-99 weak or false positive, >=100 interaction; at least 30 cells per sample. The source holds these as a separate data set.

Like-named read-outs stand apart in the source and are kept apart here. Results are given in words; binding and its absence hold for the method and conditions named. In cells and extracts the contact can be indirect. Some binding calls cover weakened binding; strength is not graded here. Sequences can lack the tags named with a protein.

Turning to “dopamine receptor D1, ECFP-tagged (from UniProt P21728 1-446)”, the binding entry in assay [1] is reported as “no binding”.

B1: endoglin wild-type, split-EYFP (BiFC) fusion (receptor, UniProt P17813 26-658)
chain: ETVHCDLQPVGPERGEVTYTTSQVSKGCVAQAPNAILEVHVLFLEFPTGPSQLELTLQASKQNGTWPREVLLVLSVNSSVFLHLQALGIPLHLAYNSSLVTFQEPPGVNTTELPSFPKTQILEWAAERGPITSAAELNDPQSILLRLGQAQGSLSFCMLEASQDMGRTLEWRPRTPALVRGCHLEGVAGHKEAHILRVLPGHSAGPRTVTVKVELSCAPGDLDAVLILQGPPYVSWLIDANHNMQIWTTGEYSFKIFPEKNIRGFKLPDTPQGLLGEARMLNASIVASFVELPLASIVSLHASSCGGRLQTSPAPIQTTPPKDTCSPELLMSLIQTKCADDAMTLVLKKELVAHLKCTITGLTFWDPSCEAEDRGDKFVLRSAYSSCGMQVSASMISNEAVVNILSSSSPQRKKVHCLNMDSLSFQLGLYLSPHFLQASNTIEPGQQSFVQVRVSPSVSEFLLQLDSCHLDLGPEGGTVELIQGRAAKGNCVSLLSPSPEGDPRFSFLLHFYTVPIPKTGTLSCTVALRPKTGSQDQEVHRTVFMRLNIISPDLSGCTSKGLVLPAVLGITFGAFLIGALLTAALWYIYSHTRSPSKREPVVAVAAPASSESSSTNHSIGSTQSTPCSTSSMA
Turning to B1, the binding entry in assay [2] is reported as “binds”.

B2: endoglin G52V, split-EYFP (BiFC) fusion (receptor, UniProt P17813 26-658)
chain: ETVHCDLQPVGPERGEVTYTTSQVSKVCVAQAPNAILEVHVLFLEFPTGPSQLELTLQASKQNGTWPREVLLVLSVNSSVFLHLQALGIPLHLAYNSSLVTFQEPPGVNTTELPSFPKTQILEWAAERGPITSAAELNDPQSILLRLGQAQGSLSFCMLEASQDMGRTLEWRPRTPALVRGCHLEGVAGHKEAHILRVLPGHSAGPRTVTVKVELSCAPGDLDAVLILQGPPYVSWLIDANHNMQIWTTGEYSFKIFPEKNIRGFKLPDTPQGLLGEARMLNASIVASFVELPLASIVSLHASSCGGRLQTSPAPIQTTPPKDTCSPELLMSLIQTKCADDAMTLVLKKELVAHLKCTITGLTFWDPSCEAEDRGDKFVLRSAYSSCGMQVSASMISNEAVVNILSSSSPQRKKVHCLNMDSLSFQLGLYLSPHFLQASNTIEPGQQSFVQVRVSPSVSEFLLQLDSCHLDLGPEGGTVELIQGRAAKGNCVSLLSPSPEGDPRFSFLLHFYTVPIPKTGTLSCTVALRPKTGSQDQEVHRTVFMRLNIISPDLSGCTSKGLVLPAVLGITFGAFLIGALLTAALWYIYSHTRSPSKREPVVAVAAPASSESSSTNHSIGSTQSTPCSTSSMA
As for B2, in assay [2], the binding entry is listed as “binds”.

B3: endoglin S480C, split-EYFP (BiFC) fusion (receptor, UniProt P17813 26-658)
chain: ETVHCDLQPVGPERGEVTYTTSQVSKGCVAQAPNAILEVHVLFLEFPTGPSQLELTLQASKQNGTWPREVLLVLSVNSSVFLHLQALGIPLHLAYNSSLVTFQEPPGVNTTELPSFPKTQILEWAAERGPITSAAELNDPQSILLRLGQAQGSLSFCMLEASQDMGRTLEWRPRTPALVRGCHLEGVAGHKEAHILRVLPGHSAGPRTVTVKVELSCAPGDLDAVLILQGPPYVSWLIDANHNMQIWTTGEYSFKIFPEKNIRGFKLPDTPQGLLGEARMLNASIVASFVELPLASIVSLHASSCGGRLQTSPAPIQTTPPKDTCSPELLMSLIQTKCADDAMTLVLKKELVAHLKCTITGLTFWDPSCEAEDRGDKFVLRSAYSSCGMQVSASMISNEAVVNILSSSSPQRKKVHCLNMDSLSFQLGLYLSPHFLQASNTIEPGQQSFVQVRVCPSVSEFLLQLDSCHLDLGPEGGTVELIQGRAAKGNCVSLLSPSPEGDPRFSFLLHFYTVPIPKTGTLSCTVALRPKTGSQDQEVHRTVFMRLNIISPDLSGCTSKGLVLPAVLGITFGAFLIGALLTAALWYIYSHTRSPSKREPVVAVAAPASSESSSTNHSIGSTQSTPCSTSSMA
For the molecule B3, the binding entry in assay [3] and in assay [2] was “binds” throughout.

B4: endoglin G413V, split-EYFP (BiFC) fusion (receptor, UniProt P17813 26-658)
chain: ETVHCDLQPVGPERGEVTYTTSQVSKGCVAQAPNAILEVHVLFLEFPTGPSQLELTLQASKQNGTWPREVLLVLSVNSSVFLHLQALGIPLHLAYNSSLVTFQEPPGVNTTELPSFPKTQILEWAAERGPITSAAELNDPQSILLRLGQAQGSLSFCMLEASQDMGRTLEWRPRTPALVRGCHLEGVAGHKEAHILRVLPGHSAGPRTVTVKVELSCAPGDLDAVLILQGPPYVSWLIDANHNMQIWTTGEYSFKIFPEKNIRGFKLPDTPQGLLGEARMLNASIVASFVELPLASIVSLHASSCGGRLQTSPAPIQTTPPKDTCSPELLMSLIQTKCADDAMTLVLKKELVAHLKCTITGLTFWDPSCEAEDRGDKFVLRSAYSSCVMQVSASMISNEAVVNILSSSSPQRKKVHCLNMDSLSFQLGLYLSPHFLQASNTIEPGQQSFVQVRVSPSVSEFLLQLDSCHLDLGPEGGTVELIQGRAAKGNCVSLLSPSPEGDPRFSFLLHFYTVPIPKTGTLSCTVALRPKTGSQDQEVHRTVFMRLNIISPDLSGCTSKGLVLPAVLGITFGAFLIGALLTAALWYIYSHTRSPSKREPVVAVAAPASSESSSTNHSIGSTQSTPCSTSSMA
With B4, the binding result in assay [2] is on record as “binds”.

B5: TβRII, ECFP- or EYFP-tagged (receptor, UniProt P37173 23-567, looked up)
chain: TIPPHVQKSVNNDMIVTDNNGAVKFPQLCKFCDVRFSTCDNQKSCMSNCSITSICEKPQEVCVAVWRKNDENITLETVCHDPKLPYHDFILEDAASPKCIMKEKKKPGETFFMCSCSSDECNDNIIFSEEYNTSNPDLLLVIFQVTGISLLPPLGVAISVIIIFYCYRVNRQQKLSSTWETGKTRKLMEFSEHCAIILEDDRSDISSTCANNINHNTELLPIELDTLVGKGRFAEVYKAKLKQNTSEQFETVAVKIFPYEEYASWKTEKDIFSDINLKHENILQFLTAEERKTELGKQYWLITAFHAKGNLQEYLTRHVISWEDLRKLGSSLARGIAHLHSDHTPCGRPKMPIVHRDLKSSNILVKNDLTCCLCDFGLSLRLDPTLSVDDLANSGQVGTARYMAPEVLESRMNLENVESFKQTDVYSMALVLWEMTSRCNAVGEVKDYEPPFGSKVREHPCVESMKDNVLRDRGRPEIPSFWLNHQGIQMVCETLTECWDHDPEARLTAQCVAERFSELEHLDRLSGRSCSEEKIPEDGSLNTTK
notes: TβRII, TGF-β type II receptor; The methods name only the EYFP version; the results use an ECFP-tagged version; also called TβRII-EYFP; TGF-β type-II receptor; source: CHO cells, transiently co-transfected, in living cells
As for B5, the binding result in assay [1] is “no binding”.

B6: ALK5, ECFP- or EYFP-tagged (receptor, UniProt P36897 34-503, looked up)
chain: LQCFCHLCTKDNFTCVTDGLCFVSVTETTDKVIHNSMCIAEIDLIPRDRPFVCAPSSKTGSVTTTYCCNQDHCNKIELPTTVKSSPGLGPVELAAVIAGPVCFVCISLMLMVYICHNRTVIHHRVPNEEDPSLDRPFISEGTTLKDLIYDMTTSGSGSGLPLLVQRTIARTIVLQESIGKGRFGEVWRGKWRGEEVAVKIFSSREERSWFREAEIYQTVMLRHENILGFIAADNKDNGTWTQLWLVSDYHEHGSLFDYLNRYTVTVEGMIKLALSTASGLAHLHMEIVGTQGKPAIAHRDLKSKNILVKKNGTCCIADLGLAVRHDSATDTIDIAPNHRVGTKRYMAPEVLDDSINMKHFESFKRADIYAMGLVFWEIARRCSIGGIHEDYQLPYYDLVPSDPSVEEMRKVVCEQKLRPNIPNRWQSCEALRVMAKIMRECWYANGAARLTALRIKKTLSQLSQQEGIKM
notes: ALK5, TGF-β type I receptor; The methods name only the EYFP version; the results use an ECFP-tagged version; also called ALK5-EYFP; source: CHO cells, transiently co-transfected, in living cells
Regarding B6, the binding result in assay [4] is reported as “no binding”.
